In ChEMBL document CHEMBL4888484, “Replenishing the malaria drug discovery pipeline: Screening and hit evaluation of the MMV Hit Generation Library 1 (HGL1) against asexual blood stage Plasmodium falciparum ,using a nano luciferase reporter read-out” (2022):
In all, about 150,000 compounds went through this assay and about 540 (0.36%) showed an effect of 50% or more. The list shows a part of the results.

system: Plasmodium falciparum; experiment: Primary screen in NF54 nanoGlo assay, in single point, at 2uM, 72h; a lower Z score goes with more inhibition; assay type: functional, Erythrocyte; settings: timepoint 72 hour

In order of falling “% Inhibition” value:
1. CN1CCN([C@H]2CN(C(=O)c3ccc(-c4ccccc4)cc3)C[C@@H]2O)CC1  15%
2. CC(=O)N1CCC(N2CCN3C(=O)N(Cc4ccc(F)cc4)C[C@H]3C2)CC1  11%
3. CCc1cc(N2CCO[C@H](c3ccccc3)C2)n2nccc2n1  9%
4. COc1cccc([C@H]2OCCn3c(-c4ccc(Cl)cc4)c4c(=O)n(C)c(=O)n(C)c4c32)c1O  9%
5. Cc1cc(C(=O)N[C@H]2CCOC[C@@H]2OCc2ccccc2)c(C)n1C  8%
6. Cn1cccc(C(=O)N[C@@H]2COCC[C@@H]2Oc2cccc(F)c2)c1=O  7%
7. Cc1nc(CNC(=O)c2cccc(-n3cccn3)n2)oc1C  4%
8. CC(C)C[C@H](NC(=O)Cn1ncn(C)c1=O)C(C)(C)C  2%
9. COCC1(C(=O)NCC2(N3CCOCC3)CCCCCC2)CCC1  1%
10. CCN(C)C(=O)c1cccc(C(=O)N[C@H]2CCN(c3ccccc3OC)C2=O)c1  1%
11. CC[C@@H](Cn1ccnc1)NS(=O)(=O)c1c(C)noc1C  0%
12. CC(=O)c1cc(CN2CCO[C@H](C(=O)N(C)C)C2)n(C)c1  -2%
13. COCCNC(=O)[C@@H](C)C1CC[C@@]2(C)CC[C@H](NC(=O)c3ccncc3)[C@@H](C)[C@@H]2[C@H]1O (stereo partly drawn)  -2%
14. CCc1cccnc1C(=O)NC[C@H]1CCCO1  -5%
15. C[C@H](Nc1cccnc1C#N)C1CCN(CC(F)(F)F)CC1  -7%
16. Cc1cc(C2CCC2)nc(N2CC[C@H](NC(=O)c3cnccn3)[C@@H](O)C2)n1  -8%
17. CCC(C)(C)NC(=O)CC(=O)Nc1nccs1  -8%
18. Cc1ccccc1CC(=O)N[C@@H]1c2ccccc2OC[C@@H]1CO  -11%
19. Cc1ccc(F)c(N[C@@H]2CCNC(=O)CC2)c1  -12%
20. Cc1cnn(CCCNC(=O)c2cccc3c2OCC3)c1  -12%
21. COc1ccc(-c2cn(Cc3cncn3CC(C)C)nn2)cn1  -14%
22. CC1(C)CC(NS(C)(=O)=O)CC(C)(C)N1O  -15%
23. CC(C)(C)c1nc(O)c(Br)c(C(C)(C)C)n1  -16%
24. COC(=O)C(NCc1ccc(F)cc1F)C(C)O (stereo not drawn)  -16%

In order of falling Z score:
1. COC(=O)C(NCc1ccc(F)cc1F)C(C)O (stereo not drawn)  2.48
2. CC1(C)CC(NS(C)(=O)=O)CC(C)(C)N1O  2.14
3. CC(C)(C)c1nc(O)c(Br)c(C(C)(C)C)n1  1.83
4. Cc1ccc(F)c(N[C@@H]2CCNC(=O)CC2)c1  1.76
5. Cc1cnn(CCCNC(=O)c2cccc3c2OCC3)c1  1.64
6. COc1ccc(-c2cn(Cc3cncn3CC(C)C)nn2)cn1  1.57
7. C[C@H](Nc1cccnc1C#N)C1CCN(CC(F)(F)F)CC1  1.46
8. Cc1ccccc1CC(=O)N[C@@H]1c2ccccc2OC[C@@H]1CO  1.37
9. Cc1cc(C2CCC2)nc(N2CC[C@H](NC(=O)c3cnccn3)[C@@H](O)C2)n1  1.16
10. CCC(C)(C)NC(=O)CC(=O)Nc1nccs1  1.03
11. CCc1cccnc1C(=O)NC[C@H]1CCCO1  0.84
12. CC(=O)c1cc(CN2CCO[C@H](C(=O)N(C)C)C2)n(C)c1  0.47
13. COCCNC(=O)[C@@H](C)C1CC[C@@]2(C)CC[C@H](NC(=O)c3ccncc3)[C@@H](C)[C@@H]2[C@H]1O (stereo partly drawn)  0.36
14. CC[C@@H](Cn1ccnc1)NS(=O)(=O)c1c(C)noc1C  -0.03
15. CCN(C)C(=O)c1cccc(C(=O)N[C@H]2CCN(c3ccccc3OC)C2=O)c1  -0.12
16. CC(C)C[C@H](NC(=O)Cn1ncn(C)c1=O)C(C)(C)C  -0.2
17. COCC1(C(=O)NCC2(N3CCOCC3)CCCCCC2)CCC1  -0.23
18. Cc1nc(CNC(=O)c2cccc(-n3cccn3)n2)oc1C  -0.63
19. Cn1cccc(C(=O)N[C@@H]2COCC[C@@H]2Oc2cccc(F)c2)c1=O  -1.11
20. COc1cccc([C@H]2OCCn3c(-c4ccc(Cl)cc4)c4c(=O)n(C)c(=O)n(C)c4c32)c1O  -1.13
21. CCc1cc(N2CCO[C@H](c3ccccc3)C2)n2nccc2n1  -1.18
22. Cc1cc(C(=O)N[C@H]2CCOC[C@@H]2OCc2ccccc2)c(C)n1C  -1.34
23. CC(=O)N1CCC(N2CCN3C(=O)N(Cc4ccc(F)cc4)C[C@H]3C2)CC1  -1.47
24. CN1CCN([C@H]2CN(C(=O)c3ccc(-c4ccccc4)cc3)C[C@@H]2O)CC1  -1.99
